The campaign covered roughly 330,000 compounds. About 1,700 (0.52%) were called active. The inconclusive results got no clear call from the source; some entries with a clear call stand among them for comparison. Calls come from the whole dose curve; as a rule, active = well fitted inhibition curve with a large enough effect; inconclusive = small, poorly fitted or top-dose-only effect; inactive = no such curve, though single readings can be large or run the other way. Potencies beside an inconclusive call are fits to weak or partial responses and may not hold up.
Molecular target: Beta-lactamase (Escherichia coli (strain K12)) (UniProt P00811)
Assay: qHTS Inhibitors of AmpC Beta-Lactamase (assay without detergent); note: nearly all actives have a fitted effect of over 20% in size
Details: AmpC nitrocefin hydrolysis, absorbance 480 nm, 0.0001% Triton; series mostly up to 57.1 µM
Summary of the method: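 AmpC (5.3 nM in the dispensed reagent) in 20 mM phosphate pH 7.0 with 0.01% (detergent screen) or 0.0001% Triton X-100 was preincubated with compounds for 15 min at room temperature. Nitrocefin was then added from an 800 uM solution, and hydrolysis was followed at 480 nm.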
Potency is the fitted concentration of half-maximal effect; tags give direction and shape of the fitted curve.

UniProt P00811, sequence (P00811 whole entry, looked up): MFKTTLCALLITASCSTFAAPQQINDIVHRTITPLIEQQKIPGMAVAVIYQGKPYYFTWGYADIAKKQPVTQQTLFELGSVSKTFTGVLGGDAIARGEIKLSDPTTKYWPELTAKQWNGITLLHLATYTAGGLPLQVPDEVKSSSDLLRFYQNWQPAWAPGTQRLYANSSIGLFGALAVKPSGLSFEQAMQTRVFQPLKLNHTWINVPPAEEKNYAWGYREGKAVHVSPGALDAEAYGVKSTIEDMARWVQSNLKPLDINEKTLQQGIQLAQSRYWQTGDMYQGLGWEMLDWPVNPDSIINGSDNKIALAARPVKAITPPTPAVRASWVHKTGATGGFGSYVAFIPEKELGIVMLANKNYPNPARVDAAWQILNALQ

Which Potency does the source give for `CNC(=O)c1nn(-c2ccc(Cl)cc2)ccc1=O` here?
Its Potency is inconclusive: 6.31 µM [inhibitor, single point].

How did the Potency turn out when `O=C(Cc1ccc(Cl)cc1)Nc1ccc(-c2cc3ccccc3oc2=O)c(Cl)c1` was run?
The Potency was inconclusive: 8.91 µM [inhibitor, partial curve].

Which Potency does the source give for `CC(NC(=O)CNC(=O)c1sc2ccccc2c1Cl)c1ccc(S(N)(=O)=O)cc1` (stereo not given) here?
The Potency was inconclusive: 31.6 µM [inhibitor, single point].

How did the Potency turn out when `O=C(N/N=C/c1ccc(-c2ccccc2Cl)o1)c1ccccc1` was run?
The Potency was “inactive”.

For `Cc1ccc(-c2ccc(C(=O)NCc3ccc(Cl)cc3)o2)c2ccccc12`, which Potency is on record?
The Potency was inconclusive: 15.8 µM [inhibitor, partial curve].

For `O=C(Nc1ccccc1N1CCOCC1)C1CCCO1` (stereo not given), which Potency is on record?
Its Potency is “inactive”.

How did the Potency turn out when `CCCN1CCN(CCCNC(=O)Cn2cc3c(n2)CCCC3)CC1` was run?
Its Potency is inconclusive: 5.62 µM [inhibitor, full curve, poor fit].

With `CCOC(=O)N1CC=C2C(C#N)=C(N)C(C#N)(C#N)[C@H](c3cccs3)C2C1` (stereo not given in full) as the compound, how does the Potency read?
The Potency was “inactive”.

For `CN(C)c1ccc(CNC23CN4CN(CN(C4)C2)C3)cc1`, which Potency is on record?
Its Potency is inconclusive: 6.31 µM [inhibitor, single point].

With `CCc1noc(C)c1C(=O)NCCc1ccc(Cl)cc1` as the compound, how does the Potency read?
The Potency was inconclusive: 39.8 µM [inhibitor, single point].

With `CCCOC(=O)c1[nH]c2c(c1C)C(=O)CC(c1cc(OC)c(OC)c(OC)c1)C2` (stereo not given) as the compound, how does the Potency read?
Its Potency is active: 2.51 µM.

Which Potency does the source give for `O=C(OCC(=O)N1CCCc2ccccc21)c1cc(S(=O)(=O)N2CCOCC2)ccc1Cl` here?
Its Potency is inconclusive: 39.8 µM [inhibitor, single point].

How did the Potency turn out when `O=C(COC(=O)c1cc(-c2ccccc2)nc2ccccc12)Nc1ccc2c(c1)OCO2` was run?
The Potency was inconclusive: 25.1 µM [inhibitor, partial curve].

For `CCCCc1ccc(NC(=O)CSCc2cc(=O)[nH][nH]2)cc1`, which Potency is on record?
Its Potency is active: 17.8 µM.

With `CSc1nc(NNC=O)cc(Oc2ccc(NC(C)=O)cc2)n1` as the compound, how does the Potency read?
Its Potency is “inactive”.

Which Potency does the source give for `Cc1ccc(-n2c(SCC(=O)Nc3cc(C)on3)nc3c([nH]c4ccccc43)c2=O)cc1` here?
The Potency was inconclusive: 10 µM [inhibitor, full curve, poor fit].

How did the Potency turn out when `COc1ccc(-n2c(Cc3cccn3C)nnc2SCC(=O)Nc2ccccc2OC)cc1` was run?
The Potency was “inactive”.

Which Potency does the source give for `Cc1cc(N2CCC(C)CC2)nc(-n2nc(C)cc2C)n1` here?
The Potency was “inactive”.

Which Potency does the source give for `Clc1ccc(/C=C/c2nc3ccccc3[nH]2)c(Cl)c1` here?
Its Potency is active: 11.2 µM.

`COc1ccc(NC(=O)CSc2nnc3ccc(-c4ccncc4)nn23)cc1` was tested. Which Potency did it give?
Its Potency is inconclusive: 39.8 µM [inhibitor, single point].

How did the Potency turn out when `O=C(Cn1cc2c(n1)CCCCC2)N1CCc2ccccc2C1` was run?
Its Potency is active: 0.562 µM.

`O=C(Nc1ccn(Cc2ccccc2F)n1)c1ccc(COc2ccccc2Cl)cc1` was tested. Which Potency did it give?
The Potency was inconclusive: 0.224 µM [inhibitor, full curve, poor fit].

Which Potency does the source give for `O=C(O)c1cccc(COc2ccc(CO)cc2Cl)c1` here?
Its Potency is inconclusive: 6.31 µM [inhibitor, single point].

Which Potency does the source give for `O=C1c2ccccc2CCCC12N=NCC2c1cccc2ccccc12` (stereo not given) here?
Its Potency is “inactive”.

For `O=C(COC(=O)c1ccco1)NCC1CCCCC1`, which Potency is on record?
Its Potency is “inactive”.

For `CCCCn1c(N)c(N(CC)C(=O)Cc2ccc(S(=O)(=O)N3CCOCC3)s2)c(=O)[nH]c1=O`, which Potency is on record?
Its Potency is inconclusive: 39.8 µM [inhibitor, single point].

For `Cn1c(=O)c2c(nc(CN3CCN(c4ccccc4)CC3)n2Cc2ccccc2Cl)n(C)c1=O`, which Potency is on record?
Its Potency is “inactive”.

For `CC(NC(=O)c1ccccc1F)c1nnc(SCC(=O)Nc2nnc(C3CC3)s2)n1C` (stereo not given), which Potency is on record?
The Potency was inconclusive: 39.8 µM [inhibitor, single point].

With `CCOC(=O)N1CCN(S(=O)(=O)c2ccc(C(=O)N(CCN(C)C)c3nc4ccc(Cl)cc4s3)cc2)CC1` as the compound, how does the Potency read?
Its Potency is “inactive”.

Which Potency does the source give for `FC(F)(F)c1nc(Oc2ccccc2)c2ccccc2n1` here?
Its Potency is inconclusive: 5.62 µM [inhibitor, single point].

With `OC(CNCc1ccccc1)(c1ccc(F)cc1)c1ccc(F)cc1` as the compound, how does the Potency read?
Its Potency is inconclusive: 6.31 µM [inhibitor, single point].

For `COc1ccc(NS(=O)(=O)c2cccc(-c3n[nH]c(=S)n3Cc3ccccc3)c2)cc1`, which Potency is on record?
The Potency was active: 12.6 µM.

How did the Potency turn out when `COc1ccc(NC(=O)CN(C)C(=O)c2ccc(-c3ccccc3Cl)o2)cc1` was run?
Its Potency is inconclusive: 39.8 µM [inhibitor, single point].

With `CCOC(=O)C1CCCN(C(=O)c2ccc(CNc3c(N4CCC(C)CC4)c(=O)c3=O)cc2)C1` (stereo not given) as the compound, how does the Potency read?
Its Potency is inconclusive: 2.82 µM [inhibitor, full curve, poor fit].

Which Potency does the source give for `O=C(Nc1ccccc1)c1cccc(S(=O)(=O)Oc2ccc([N+](=O)[O-])cc2)c1` here?
The Potency was inconclusive: 25.1 µM [inhibitor, single point].

How did the Potency turn out when `N#CCC(=O)Nc1ccc(C(=O)OCC(=O)NCCCc2ccccc2)cc1` was run?
The Potency was inconclusive: 10 µM [inhibitor, partial curve, poor fit].

How did the Potency turn out when `Cc1c(C#N)c(N)nc(Cl)c1C#N` was run?
The Potency was “inactive”.

How did the Potency turn out when `COc1cccc(/C=C/C(=O)OCC(=O)Nc2cccc(S(=O)(=O)N3CCCCC3)c2)c1OC` was run?
The Potency was inconclusive: 1.26 µM [inhibitor, full curve, poor fit].

With `Fc1ccc(Sc2nc(-c3ccccc3)nnc2C(F)(F)F)cc1` as the compound, how does the Potency read?
Its Potency is inconclusive: 0.631 µM [inhibitor, partial curve, poor fit].

`O=C(Nc1ccccc1N1CCOCC1)c1ccc(S(=O)(=O)NCc2ccco2)cc1` was tested. Which Potency did it give?
Its Potency is inconclusive: 39.8 µM [inhibitor, single point].

Which Potency does the source give for `COc1ccc(C(=O)Nc2cccc(-c3nc4ncccc4o3)c2C)cc1` here?
Its Potency is “inactive”.

With `COCCn1c(=O)[nH]c(=O)c2c1nc(-c1ccc(-c3ccc(Cl)cc3[N+](=O)[O-])o1)n2Cc1ccccc1` as the compound, how does the Potency read?
Its Potency is active: 7.94 µM.

With `Cc1cccc(N(C(=O)Cn2nnc3ccccc32)C(C(=O)NC(C)(C)C)c2ccsc2)c1C` (stereo not given) as the compound, how does the Potency read?
Its Potency is active: 0.224 µM.

How did the Potency turn out when `Cc1cccc(N2CCN(C(=O)c3cc(COc4ccc(F)c(F)c4)on3)CC2)n1` was run?
The Potency was “inactive”.

Which Potency does the source give for `CCCc1c(C(=O)N/N=C/c2c(OC)ccc3ccccc23)nnn1-c1nonc1N` here?
The Potency was inconclusive: 15.8 µM [inhibitor, partial curve].

From PubChem BioAssay AID485341 (National Center for Advancing Translational Sciences (NCATS), 2010)
